Patent publication US11529425B2, “Immunoconjugates comprising signal regulatory protein alpha” (DINGFU BIOTARGET CO., LTD., priority 2017, dated 2022)
Entries after “also recorded” stand apart in the source; their conditions may differ. Where two headings read alike, the source gives them in different places.

Assays:
CD47-muFc = biological target: T1, CD47-muFc (Homo sapiens, UniProt Q08722); assay: Binding kinetics by bio-layer inferometry (BLI), Octet K2; conditions: 25° C.
T1 construct: made in house; host or cells: transiently transfected FreeStyle 293F cells (HEK293)
T1 sequence (Q08722 with tags, fused parts or gaps): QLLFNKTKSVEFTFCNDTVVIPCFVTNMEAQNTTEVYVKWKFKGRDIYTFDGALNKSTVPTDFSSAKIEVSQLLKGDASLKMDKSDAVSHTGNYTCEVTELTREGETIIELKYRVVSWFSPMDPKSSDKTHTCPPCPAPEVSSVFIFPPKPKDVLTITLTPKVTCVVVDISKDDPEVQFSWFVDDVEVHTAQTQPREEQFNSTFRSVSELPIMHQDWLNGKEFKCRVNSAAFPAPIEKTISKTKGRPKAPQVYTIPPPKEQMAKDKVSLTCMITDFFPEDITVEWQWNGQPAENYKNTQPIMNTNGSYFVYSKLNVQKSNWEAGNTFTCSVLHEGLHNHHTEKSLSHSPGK
Text: The amino acid sequence of the human CD47 extracellular domain (i.e., the 19th residue to the 141th residue in Q08722) was obtained according to the amino acid sequence of human CD47 (Q08722) in the protein database Uniprot. According to the amino acid sequence of the constant region of murine immunoglobulin gamma1 (P01868) in the protein database Uniprot, the amino acid sequence of muFc (i.e., the 112th residue to the 213th residue in P01868) was obtained. The DNAworks Online Tool (helixweb.nih.gov) was used to design the corresponding coding DNA sequence to obtain the CD47-muFc fusion protein gene, and the DNA fragment was obtained by artificial synthesis. The synthetic gene sequences were cloned into commercial vector pcDNA4/myc-HisA (Invitrogen, V863-20) by Fermentas HindIII and EcoRI. The recombinant plasmids were then sequenced for confirmation, thereby obtaining the plasmid DNA of pcDNA4-CD47-muFc. The amino acid sequences of CD47-muFc is as set forth in SEQ ID NO: 61, and the polynucleotide sequence encoding it is as set forth in SEQ ID NO: 62.
Binding kinetics of a hu56di-SIRPα immunoconjugate or control antibodies (SIRPα-Fc IgG1 and AB6.12 IgG1) were determined by the bio-layer inferometry (BLI) method using Octet K2 system (FortéBio). All experiments were performed at 25° C. under a PBS buffer containing 0.5% BSA and 0.5% Tween 20, pH 7.2. […]

[1] = test system: A375 cell (expressing CD47) and A375-PD-L1 tumor cells (expressing both CD47 and PD-L1); assay: Tumor binding in excess erythrocyte antigen sink, flow cytometry; conditions: 15-fold excess of RBCs
Experimental: An important concern about CD47-based therapeutics is the expression of the target on the surface of erythrocyte, which has the potential to act as a large antigen sink and cause hematological toxicity. […] The binding of hu56di-SIRPα to tumor cell in excess human erythrocytes antigen sink was therefore assessed by flow cytometry. A375 cell (expressing CD47) and A375-PD-L1 tumor cells (expressing both CD47 and PD-L1) were mixed with a 15-fold excess of RBCs, and then incubated with 20 μg/ml hu56di-SIRPα, SIRPα-Fc IgG1 or AB6.12 IgG1 or isotype control (human IgG1) at 4° C. for 30 min. Then the cells were washed to remove unbound proteins and incubated with an anti-hlgG Fc gamma specific PE antibody at 4° C. for 20 min. The cells were analyzed by flow cytometry (Life Technology). The gate of erythrocytes was assessed by anti-human CD235a (eBiosciences Cat #12-9987-80).
Then the cells were washed to remove unbound proteins and incubated with an anti-hlgG Fc gamma specific PE antibody at 4° C. for 20 min. The cells were analyzed by flow cytometry (Life Technology). The gate of erythrocytes was assessed by anti-human CD235a (eBiosciences Cat #12-9987-80).

human erythrocytes (RBC) = assay: RBC binding in tumor cell / 15-fold excess RBC mix, flow cytometry; conditions: tumor cells mixed with 15-fold excess of RBCs, 20 μg/ml, FIG. 6a-6e
mouse RBCs = assay: Mouse RBC binding, MC38 tumor cells mixed with 15-fold excess of mouse RBCs
Experimental: Similarly, MC38 tumor cells were mixed with a 15-fold excess of mouse RBCs, and then incubated with 20 μg/ml, a-mPD-L1, mSIRPα-Fc, CV1-Fc, mPD-L1-CV1, mPD-L1-mSIRPα or isotype control (human IgG1) at 4° C. for 30 min. Then the cells were washed to remove unbound proteins and incubated with an anti-hlgG Fc gamma specific PE antibody at 4° C. for 20 min. The cells were analyzed by flow cytometry (Life Technology). The gate of erythrocytes was assessed by anti-mouse RBC antibody (abcam Cat #ab106101). In FIG. 6g, serial numbers of 1, 2, 3 and 4 correspond to isotype control (human IgG1), mSIRPα-Fc, a-mPD-L1 and mPD-L1-mSIRPα. In FIG. 6h, serial numbers of 1, 2, 3 and 4 correspond to isotype control (human IgG1), CV1-Fc, a-mPD-L1 and mPD-L1-CV1.

MC38 tumor cells [2] = conditions: for anti-tumor efficacy, big dose: FIG. 8e and 8f
RBC = assay: Hemin in serum of tumor-bearing mice (RBC immune lysis); format: in vivo; conditions: compared to a-mCD47 and mSIRPα-Fc treatment, FIG. 8d
MC38 tumor cells [3] = assay: Combination with chemotherapy (doxorubicin) in MC38 tumor model; conditions: doxorubicin intratumorally on day 11, mPD-L1-mSIRPα 1 day later

B1: AB6.12 IgG1: anti-CD47 monoclonal antibody, AB6.12-HC + AB6.12-LC according to WO2014123580A, Group 20 (antibody)
heavy: QMQLVQSGAEVKKTGSSVKVSCKASGFNIKDYYLHWVRQAPGQALEWMGWIDPDQGDTEYAQKFQDRVTITRDRSMSTAYMELSSLRSEDTAMYYCNAAYGSSSYPMDYWGQGTTVTVSS[not shown - human IgG1 constant region]
light: NIQMTQSPSAMSASVGDRVTITCKASQDIHRYLSWFQQKPGKVPKHLIYRANRLVSGVPSRFSGSGSGTEFTLTISSLQPEDFATYYCLQYDEFPYTFGGGTKVEIKRTVAAPSVFIFPPSDEQLKSGTASVVCLLNNFYPREAKVQWKVDNALQSGNSQESVTEQDSKDSTYSLSSTLTLSKADYEKHKVYACEVTHQGLSSPVTKSFNRGEC
B1 was tested, and the “kon” value (CD47-muFc; association 40 seconds) was 651000 M⁻¹ s⁻¹, the “kdis” value (CD47-muFc; dissociation 300 seconds) was 0.000129 s⁻¹ and the “preference of binding, tumor cells versus RBC” value ([1]; FIG. 6a) was “bound tumor cells and RBCs at the same time”. For the same molecule, the “binding to RBC (MFI)” value (human erythrocytes (RBC)) was “strong binding to RBC”.

B2: hu56-Fc6-SIRPα: heterodimer of hu56-Fc9 and hu56-Fc6-SIRPα (SIRPα at C-terminus of Fc6), Group 10 (protein)
chain 1: QVQLVESGGGLVQPGGSLRLSCAASGKMSSRRCMAWFRQAPGKERERVAKLLTTSGSTYLADSVKGRFTISRDNSKNTVYLQMNSLRAEDTAVYYCAADSFEDPTCTLVTSSGAFQYWGQGTLVTVSSEPKSSDKTHTCPPCPAPELLGGPSVFLFPPKPKDTLMISRTPEVTCVVVDVSHEDPEVKFNWYVDGVEVHNAKTKPREEQYNSTYRVVSVLTVLHQDWLNGKEYKCKVSNKALPAPIEKTISKAKGQPREPQVYTLPPCRDELTKNQVSLWCLVKGFYPSDIAVEWESNGQPENNYKTTPPVLDSDGSFFLYSALTVDKSRWQQGNVFSCSVMHEALHNHYTQKSLSLSPGK
chain 2: QVQLVESGGGLVQPGGSLRLSCAASGKMSSRRCMAWFRQAPGKERERVAKLLTTSGSTYLADSVKGRFTISRDNSKNTVYLQMNSLRAEDTAVYYCAADSFEDPTCTLVTSSGAFQYWGQGTLVTVSSEPKSSDKTHTCPPCPAPELLGGPSVFLFPPKPKDTLMISRTPEVTCVVVDVSHEDPEVKFNWYVDGVEVHNAKTKPREEQYNSTYRVVSVLTVLHQDWLNGKEYKCKVSNKALPAPIEKTISKAKGQPREPQVYTLPPSRDELTKNQVSLSCGVKGFYPSDIAVEWESNGQPENNYKTTPPVLDSDGSFKLASKLTVDKSRWQQGNVFSCSVMHEALHNHYTQKSLSLSPGKGGGGSGGGGSGGGGSEE[not shown - about 120 residues]
In the case of B2, the “binding to tumor cells (MFI)” value ([1]; 20 μg/ml, tumor cells expressing dual antigen (A375-PD-L1), FIG. 6a/6b) is reported as “stronger binding to tumor cells than AB6.12 IgG1” and the “binding to RBC (MFI)” value (human erythrocytes (RBC)) is reported as “almost do not bind to RBC”.

B3: mPD-L1-CV1: heterodimer of mPD-L1-Fc9 and CV1-Fc6, Group 15 (protein)
chain 1: QVQLQQSGPGLVKPSQTLSLTCAISGDSVSSTKAAWYWIRQSPSRGLEWLGRTYFRSKWYNDYADSVKSRLTINPDTSKNQFSLQLKSVSPEDTAVYYCARGQYTAFDIWGQGTMVTVSSGILGSGGGGSGGGGSGGGGSQSALIQPASVSGSPGQSITISCTGTSSDVGGYDLVSWYQQYPGQAPRLIIYEVIKRPSGISDRFSGSKSGNTASLTISGLQAEDEADYYCCSYAGRRLHGVFGGGTQLTVL[not shown - human IgG1 Fc with T366W K409A (EU numbers)]
chain 2: EEELQIIQPDKSVLVAAGETATLRCTITSLFPVGPIQWFRGAGPGRVLIYNQRQGPFPRVTTVSDTTKRNNMDFSIRIGNITPADAGTYYCIKFRKGSPDDVEFKSGAGTELSVRAKPSGGGGSDKTHTCPPCPAPELLGGPSVFLFPPKPKDTLMISRTPEVTCVVVDVSHEDPEVKFNWYVDGVEVHNAKTKPREEQYNSTYRVVSVLTVLHQDWLNGKEYKCKVSNKALPAPIEKTISKAKGQPREPQVYTLPPSRDELTKNQVSLSCGVKGFYPSDIAVEWESNGQPENNYKTTPPVLDSDGSFKLASKLTVDKSRWQQGNVFSCSVMHEALHNHYTQKSLSLSPGK
In the case of B3, the “binding to mouse RBC” value (mouse RBCs; MC38 cells with 15-fold excess of mouse RBCs, 20 μg/ml, FIG. 6g/6h) is reported as “stronger binding to RBC than mPD-L1-mSIRPα; also recorded: comparable binding to RBC with CV1-Fc” and the “anti-tumor efficacy, big dose” value (MC38 tumor cells [2]) is reported as “no therapeutic difference”.

B4: mPD-L1-mSIRPα: heterodimer of mPD-L1-Fc9 (anti-mouse PD-L1 ScFv) and mouse SIRPα-Fc6, Group 6 (protein)
mPD-L1-Fc9 (anti-mouse PD-L1 …: B3 chain 1
mSIRPα-Fc6: KELKVTQPEKSVSVAAGDSTVLACTLTSLLPVGPIRWYRGVGPSRLLIYSFAGEYVPRIRAVSDTTKRNNMDFSIRISAVTPADAGIYYCVKFQKGSSEPDTEIQSGGGTEVYVLAGGGGSDKTHTCPPCPAPELLGGPSVFLFPPKPKDTLMISRTPEVTCVVVDVSHEDPEVKFNWYVDGVEVHNAKTKPREEQYNSTYRVVSVLTVLHQDWLNGKEYKCKVSNKALPAPIEKTISKAKGQPREPQVYTLPPSRDELTKNQVSLSCGVKGFYPSDIAVEWESNGQPENNYKTTPPVLDSDGSFKLASKLTVDKSRWQQGNVFSCSVMHEALHNHYTQKSLSLSPGK
With B4 the “safety inferred from mouse RBC binding” value (mouse RBCs; inferred from FIG. 6g/6h) was “better safety than mPD-L1-CV1 and mSIRPα-Fc”, the “hemin in serum (RBC immune lysis)” value (RBC) was “protected RBC from immune lysis” and the “anti-tumor efficacy, big dose” value (MC38 tumor cells [2]) was “no therapeutic difference”. For the same molecule, the “survival of tumor-bearing mice” value (MC38 tumor cells [2]; intraperitoneally administered (systemic), FIG. 8c) was “prolonged the survival of tumor-bearing mice”, the “tumor growth (tumor volume)” value (MC38 tumor cells [2]; intraperitoneally administered (systemic), compared to isotype control and mixture of mPD-L1 antibody with mSIRPα-Fc, FIG. 8b) was “significantly slowed tumor growth” and the “tumor growth (tumor volume)” value (MC38 tumor cells [2]; intratumorally administered, compared to isotype control, mPD-L1 antibody and mSIRPα-Fc, FIG. 8a) was “significantly inhibited tumor growth”. The “anti-tumor efficacy, small dose” value (MC38 tumor cells [2]; small dose, FIG. 8g) was “better than mPD-L1-CV1”, the “survival, combination with doxorubicin” value (MC38 tumor cells [3]; FIG. 9) was “prolonged survival of tumor-bearing mice” and the “tumor growth, combination with doxorubicin” value (MC38 tumor cells [3]; compared to isotype control and either agent alone) was “further significantly inhibited tumor growth”.
